This note sets out measurements from article PMC4336329 (PLoS ONE, 2015).

Screen size: about 310,000 compounds; about 14,000 (4.5%) showed an effect of 50% or more. Effects have a minus sign here. This is one part of the list.
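Note: peak tail current of the secondary pulse compared with the same well before compound.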

human ether-à-go-go-related gene (hERG) potassium channel, sequence (Q12809 whole entry, looked up): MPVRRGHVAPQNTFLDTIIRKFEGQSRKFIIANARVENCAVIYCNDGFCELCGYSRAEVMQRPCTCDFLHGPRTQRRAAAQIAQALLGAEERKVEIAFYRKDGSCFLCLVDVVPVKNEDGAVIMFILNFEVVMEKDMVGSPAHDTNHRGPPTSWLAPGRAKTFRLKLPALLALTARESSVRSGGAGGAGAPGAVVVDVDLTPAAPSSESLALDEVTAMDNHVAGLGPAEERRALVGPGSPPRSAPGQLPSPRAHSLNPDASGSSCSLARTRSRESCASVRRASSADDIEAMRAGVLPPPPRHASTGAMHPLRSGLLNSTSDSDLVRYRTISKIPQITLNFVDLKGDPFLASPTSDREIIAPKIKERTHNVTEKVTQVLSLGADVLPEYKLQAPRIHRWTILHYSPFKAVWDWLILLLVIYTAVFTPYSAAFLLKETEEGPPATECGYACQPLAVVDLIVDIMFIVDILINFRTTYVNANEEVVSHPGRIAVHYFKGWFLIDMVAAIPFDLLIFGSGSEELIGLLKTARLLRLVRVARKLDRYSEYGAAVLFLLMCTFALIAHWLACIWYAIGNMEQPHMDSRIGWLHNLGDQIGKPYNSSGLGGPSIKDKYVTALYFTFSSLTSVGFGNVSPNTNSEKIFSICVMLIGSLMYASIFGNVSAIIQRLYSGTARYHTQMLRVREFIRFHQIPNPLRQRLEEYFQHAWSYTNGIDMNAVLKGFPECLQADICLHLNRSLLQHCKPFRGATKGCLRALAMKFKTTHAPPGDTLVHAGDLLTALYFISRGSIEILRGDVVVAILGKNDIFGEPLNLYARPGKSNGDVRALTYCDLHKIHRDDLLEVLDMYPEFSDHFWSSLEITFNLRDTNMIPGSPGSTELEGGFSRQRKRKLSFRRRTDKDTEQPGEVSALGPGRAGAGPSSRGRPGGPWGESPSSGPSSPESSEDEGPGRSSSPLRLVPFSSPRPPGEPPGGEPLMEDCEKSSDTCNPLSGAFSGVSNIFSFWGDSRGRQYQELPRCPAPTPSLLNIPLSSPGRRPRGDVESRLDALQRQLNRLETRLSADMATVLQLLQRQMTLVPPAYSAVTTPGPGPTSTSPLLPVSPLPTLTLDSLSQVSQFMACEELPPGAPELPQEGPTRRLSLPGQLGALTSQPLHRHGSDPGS

This assay has as its target human ether-à-go-go-related gene (hERG) potassium channel (human, UniProt Q12809). The experiment in a line: primary screen, population patch clamp on CHO cells stably expressing hERG.
With `Cc1ccc(C(=O)NNC(=O)c2ccc(NS(=O)(=O)c3cccs3)cc2)s1`, the “hERG current change (%, negative = inhibition) at 10uM” value was 16.9%.

Regarding `COc1ccc(C(CNC(=O)c2ccc(C)c(S(=O)(=O)N3CCCCC3)c2)N(C)C)cc1OC` (stereo not shown), the “hERG current change (%, negative = inhibition) at 10uM” value is listed as 7.1%.

Take `O=S(=O)(NC1CCCCCCC1)c1ccccc1F`: the “hERG current change (%, negative = inhibition) at 10uM” value was -28.5%. Turning to `COc1ccc(NC(=O)Cn2nc([N+](=O)[O-])c(Cl)c2C)cc1OC`, the “hERG current change (%, negative = inhibition) at 10uM” value is listed as -18.9%. Under `O=C(CSc1nnc(CN2CCCCC2)n1-c1ccccc1)c1ccc2c(c1)OCO2` stands -25.4%; under `Cl.O=C(CN1CCCC1)NCc1ccccc1`, 15.6%. Under `COCn1ccnc1C(O)(c1ccc(OC)cc1)c1ccc(OC)cc1` stands 9.69%. The result for `Cc1c(C)n(Cc2ccc(F)cc2)c2ccc(C(=O)NCCN3CCOCC3)cc12` reads -19.2%; that for `CC(C)C(C)NC(=O)COc1ccc(-c2ccccc2)cc1` (stereo not shown), 3.45%. As for `CCc1cccc(NC(=O)CCSCCC(=O)Nc2cccc(CC)c2)c1`, the “hERG current change (%, negative = inhibition) at 10uM” value is -9.75%.

For the compound `O=C1NC(Cc2ccccc2)c2nc3ccc(Cl)cc3c(=O)n2-c2ccc(Cl)cc21` (stereo not shown), the “hERG current change (%, negative = inhibition) at 10uM” value is recorded as 10.7%.

For `CCN(c1ccccc1C(=O)O)S(=O)(=O)c1ccc2[nH]c(=O)[nH]c2c1`, the “hERG current change (%, negative = inhibition) at 10uM” value was found to be 16.1%. Under `CCc1cc(-c2n[nH]c(=S)n2CC)cs1` stands 17.7%; under `CCc1c(C)sc(NC(=O)c2ccco2)c1C(=O)N1CCOCC1`, 12.5%. On to `C=CCN=C1S/C(=C/c2ccc([N+](=O)[O-])cc2)C(=O)N1CC=C`, for which the “hERG current change (%, negative = inhibition) at 10uM” value is -0.191%. The result for `O=S(=O)(c1cccc(Br)c1)N1CCN(C(=S)NCC2CCCO2)CC1` (stereo not shown) reads 11.6%. The result for `O=C(Nc1ccccc1F)c1cc(C(=O)Nc2ccccc2F)cc([N+](=O)[O-])c1` reads 9.4%; that for `COc1nc(NCc2ccc(Cl)cc2)nc(OC)n1`, 4.9%; that for `CCOc1ccc(-c2c(C)n([O-])c3c([n+]2=O)CCCCC3)cc1`, 17.4%.

With `CCC(C)n1c(SCC(=O)Nc2ccccc2C(F)(F)F)nc2ccsc2c1=O` (stereo not shown), the “hERG current change (%, negative = inhibition) at 10uM” value is reported as -14%. On to `CCc1ccccc1NC(=O)c1cc(S(=O)(=O)N2CCc3ccccc32)cn1C`, for which the “hERG current change (%, negative = inhibition) at 10uM” value is given as 0.0433%. The result for `CCCC(NC(=O)CCc1c(C)c2cc3c4c(oc3c(C)c2oc1=O)CCCC4)C(=O)O` (stereo not shown) reads 10.9%; that for `CC(=O)c1ccc(-c2ccc([C@H]3[C@@H]4C=CCC[C@@]4(C)C(=O)N3Cc3ccccc3)c(F)c2)cc1`, 5.22%. Under `C=CCNC(=O)c1ccccc1NC(=O)c1ccc(Cl)c(S(=O)(=O)Nc2cccc(C)c2C)c1` stands -15%; under `Cc1csc(NC(=O)c2ccc(Cl)nc2)n1`, -3.42%; under `CCc1nnc(NC(=O)CSc2nnnn2-c2cccc(C(=O)OC)c2)s1`, 8.39%. As for `C=CCOc1ccc(C=Nc2ccc(OC)cc2)c(O)c1`, the “hERG current change (%, negative = inhibition) at 10uM” value amounted to 24%. Under `CCCS(=O)(=O)c1c(S(=O)(=O)CCC)c2c(N)cccn2c1C(=O)OC` stands -20%; under `COc1cc(OC)cc(C(=O)OCc2ccc([N+](=O)[O-])cc2)c1`, 5.31%; under `CC1(C)CC(c2nc(-c3ccc([N+](=O)[O-])cc3)cs2)CCO1` (stereo not shown), -29.8%. Under `CNC(=O)c1c(NC(=O)c2ccc(S(=O)(=O)N3CCCCC3)cc2)sc2c1CCN(C(C)C)C2` stands -65.8%; under `O=C(Nc1ccccc1F)c1ccc(Cn2cc(Cl)cn2)cc1`, 2.19%; under `CC(C)OCC1CO1` (stereo not shown), 6.9%. For `COc1ccc(N2C(=O)CC(N3CCC(n4c(=O)[nH]c5ccccc54)CC3)C2=O)cc1` (stereo not shown), the “hERG current change (%, negative = inhibition) at 10uM” value is reported as -19.9%. Under `CN1CCN(C(=O)c2cnn(-c3ccccc3)c2NC(=O)c2cccs2)CC1` stands -29.2%; under `OC[C@@H](O)[C@H](O)C(/C=N/Nc1ccccc1)=N\Nc1ccccc1`, 20.1%.

In the case of `COc1ccc(C(=O)Nc2ccc(CN3CCOCC3)cc2)cc1Br`, the “hERG current change (%, negative = inhibition) at 10uM” value was -35.1%. The result for `Cc1ccccc1OCC1Cn2c(nc3c2c(=O)n(C)c(=O)n3C)O1` (stereo not shown) reads 14.2%; that for `Cc1ccc(CC2CC(=O)N(c3cc(C)on3)C2=O)cc1` (stereo not shown), 11.1%. Consider `CCOc1ccc2[nH]c(C)c(CN3CCCCCC3)c(=O)c2c1`, for which the “hERG current change (%, negative = inhibition) at 10uM” value is -5.41%. The result for `COC(=O)c1c(-c2cccnc2)csc1NC(=O)c1ccc2c(c1)OCO2` reads 10.8%. The result for `COc1ccc(S(=O)(=O)N2CCCCC2)cc1NC(=O)CCNC(=O)c1ccccc1Cl` reads -11%; that for `Cc1cc(C)c(NC(=O)Cn2c(=O)c3cccn3c3ccccc32)c(C)c1`, 1.88%.
